Measured values published in article PMC4974644.
No constants are given. Whether binding was seen depends on the method and setting. Binding seen in cells or lysates may run through a third protein. Some entries that bind do so weakly or less than the wild type. Tags and fused reporters may be left off the sequences shown. Values belong to the binder of their own block, whether it stands above or below them.

Experiments:
Experiment in all cases: co-IP; HEK293T cell lysates doubly transfected with SALM4 (full-length, domains or deletion variants) + SALM2/3/5; immunoprecipitated and immunoblotted with the indicated antibodies (Figs 4d-f and 5c-e)
SALM3-EGFP (Fig. 5d) = target: T1, SALM3-EGFP (Fig. 5d) (UniProt Q80XU8)
T1 sequence: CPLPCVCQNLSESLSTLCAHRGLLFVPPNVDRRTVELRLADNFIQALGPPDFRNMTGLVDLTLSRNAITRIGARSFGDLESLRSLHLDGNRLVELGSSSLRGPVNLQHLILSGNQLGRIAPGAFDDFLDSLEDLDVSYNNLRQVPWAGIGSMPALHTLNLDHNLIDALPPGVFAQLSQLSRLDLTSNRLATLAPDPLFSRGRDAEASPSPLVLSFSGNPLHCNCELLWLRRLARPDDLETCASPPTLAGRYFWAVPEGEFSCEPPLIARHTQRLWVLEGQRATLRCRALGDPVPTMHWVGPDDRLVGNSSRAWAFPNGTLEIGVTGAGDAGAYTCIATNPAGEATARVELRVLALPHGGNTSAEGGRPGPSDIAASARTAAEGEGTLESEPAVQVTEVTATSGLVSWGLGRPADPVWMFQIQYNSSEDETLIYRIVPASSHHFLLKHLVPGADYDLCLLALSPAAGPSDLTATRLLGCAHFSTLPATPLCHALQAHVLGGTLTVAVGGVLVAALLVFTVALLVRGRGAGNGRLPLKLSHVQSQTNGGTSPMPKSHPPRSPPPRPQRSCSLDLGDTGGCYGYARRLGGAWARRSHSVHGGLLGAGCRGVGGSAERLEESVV

Myc-SALM2 (Fig. 5c) = target: T2, Myc-SALM2 (Fig. 5c) (UniProt Q2WF71)
T2 sequence: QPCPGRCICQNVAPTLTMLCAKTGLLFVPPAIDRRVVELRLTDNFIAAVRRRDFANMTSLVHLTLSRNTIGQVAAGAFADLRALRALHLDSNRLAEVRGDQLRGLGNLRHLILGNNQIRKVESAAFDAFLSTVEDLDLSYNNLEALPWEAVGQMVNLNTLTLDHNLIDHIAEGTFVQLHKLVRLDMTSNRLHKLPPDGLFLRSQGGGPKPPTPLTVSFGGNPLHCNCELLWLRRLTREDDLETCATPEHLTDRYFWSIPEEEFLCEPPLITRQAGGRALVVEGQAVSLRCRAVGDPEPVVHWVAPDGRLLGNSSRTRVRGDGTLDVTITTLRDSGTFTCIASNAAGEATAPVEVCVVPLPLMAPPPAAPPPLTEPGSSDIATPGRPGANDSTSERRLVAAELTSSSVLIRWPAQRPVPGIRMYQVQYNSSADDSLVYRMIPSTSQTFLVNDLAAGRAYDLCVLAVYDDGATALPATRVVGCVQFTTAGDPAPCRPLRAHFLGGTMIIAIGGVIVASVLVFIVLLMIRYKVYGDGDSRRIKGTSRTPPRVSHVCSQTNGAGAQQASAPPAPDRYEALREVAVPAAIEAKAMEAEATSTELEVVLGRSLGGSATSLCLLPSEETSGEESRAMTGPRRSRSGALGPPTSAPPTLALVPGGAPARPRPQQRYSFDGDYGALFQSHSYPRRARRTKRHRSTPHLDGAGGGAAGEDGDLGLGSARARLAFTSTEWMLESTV

SALM5-EGFP (Fig. 5e) = target: T3, SALM5-EGFP (Fig. 5e) (UniProt Q8BXA0)
T3 sequence: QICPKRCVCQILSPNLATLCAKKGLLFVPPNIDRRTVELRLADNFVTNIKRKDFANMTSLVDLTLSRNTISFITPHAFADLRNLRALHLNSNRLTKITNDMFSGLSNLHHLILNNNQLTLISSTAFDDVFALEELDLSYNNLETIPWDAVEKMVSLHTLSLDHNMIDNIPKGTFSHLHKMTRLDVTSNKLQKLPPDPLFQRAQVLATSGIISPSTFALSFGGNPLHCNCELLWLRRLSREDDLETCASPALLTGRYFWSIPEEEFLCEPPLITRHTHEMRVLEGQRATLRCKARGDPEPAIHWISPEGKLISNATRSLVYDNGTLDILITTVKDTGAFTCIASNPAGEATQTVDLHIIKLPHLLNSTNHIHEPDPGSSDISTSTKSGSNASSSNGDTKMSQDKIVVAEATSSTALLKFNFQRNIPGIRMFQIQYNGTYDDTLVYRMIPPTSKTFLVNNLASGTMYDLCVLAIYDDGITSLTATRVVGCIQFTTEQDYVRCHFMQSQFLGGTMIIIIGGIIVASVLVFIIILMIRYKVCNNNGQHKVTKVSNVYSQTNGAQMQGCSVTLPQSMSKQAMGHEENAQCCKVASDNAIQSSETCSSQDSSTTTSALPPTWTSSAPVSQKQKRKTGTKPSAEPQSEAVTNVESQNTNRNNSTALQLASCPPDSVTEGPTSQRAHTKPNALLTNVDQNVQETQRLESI

[1] = target: T4, SALM5, EGFP- or Myc-tagged full-length (Fig. 4f) (UniProt Q8BXA0)
T4 sequence: T3 sequence

[2] = target: T5, SALM3, EGFP- or Myc-tagged full-length (Fig. 4e) (UniProt Q80XU8)
T5 sequence: T1 sequence

[3] = target: T6, SALM2, EGFP- or Myc-tagged full-length (Fig. 4d) (UniProt Q2WF71)
T6 sequence: T2 sequence

B1: HA-SALM4-ΔC44aa (aa 28–583) (domain or fragment, UniProt Q8BLY3 28-583)
chain: CPRRCRCQTQSMPLSVLCPGAGLLFVPPSLDRRAAELRLADNFIAAVRRRDLANMTGLLHLSLSRNTIRHVAAGAFADLRALRALHLDGNRLTSLGEGQLRGLVNLRHLILSNNQLAALAAGALDDCAETLEDLDLSYNNLEQLPWEALGRLGNVNTLGLDHNLLASVPAGAFSRLHKLARLDMTSNRLTTIPPDPLFSRLPLLARPRGSPASALVLAFGGNPLHCNCELVWLRRLAREDDLEACASPPALGGRYFWAVGEEEFVCEPPVVTHRSPPLAVPAGRPAALRCRAVGDPEPRVRWVSPQGRLLGNSSRARAFPNGTLELLVTEPEDGGTFTCIAANAAGEATAAVELTVGPPPPPQLANSTSCDPPRDGEPDALTPPSAASASAKVADTVAPTDRGVQVTEHGATAALVQWPDQRPVPGIRMYQIQYNSSADDILVYRMIPADSRSFLLTDLASGRTYDLCVLAVYEDSATGLTATRPVGCARFSTEPALRPCAAPHAPFLGGTMIIALGGVIVASVLVFIFVLLLRYKVHGGQPPGKAKATAPVSSVC
- binding (SALM3-EGFP (Fig. 5d)): binds
- binding (Myc-SALM2 (Fig. 5c)): binds
- binding (SALM5-EGFP (Fig. 5e)): binds

B5: EGFP-tagged cytoplasmic domain of SALM4 (aa 561–626) (domain or fragment, UniProt Q8BLY3 561-626)
chain: RYKVHGGQPPGKAKATAPVSSVCSQTNGALGPVPSAPAPEPAAPRAHTVVQLDCEPWGPSHEPAGP
- binding [2]: no binding
- binding [3]: no binding

B6: HA-SALM4-ΔFNIII (aa 28–400, 530–627) (domain or fragment, UniProt Q8BLY3)
chain: CPRRCRCQTQSMPLSVLCPGAGLLFVPPSLDRRAAELRLADNFIAAVRRRDLANMTGLLHLSLSRNTIRHVAAGAFADLRALRALHLDGNRLTSLGEGQLRGLVNLRHLILSNNQLAALAAGALDDCAETLEDLDLSYNNLEQLPWEALGRLGNVNTLGLDHNLLASVPAGAFSRLHKLARLDMTSNRLTTIPPDPLFSRLPLLARPRGSPASALVLAFGGNPLHCNCELVWLRRLAREDDLEACASPPALGGRYFWAVGEEEFVCEPPVVTHRSPPLAVPAGRPAALRCRAVGDPEPRVRWVSPQGRLLGNSSRARAFPNGTLELLVTEPEDGGTFTCIAANAAGEATAAVELTVGPPPPPQLANSTSCDPPPHAPFLGGTMIIALGGVIVASVLVFIFVLLLRYKVHGGQPPGKAKATAPVSSVCSQTNGALGPVPSAPAPEPAAPRAHTVVQLDCEPWGPSHEPAGP
- binding (SALM3-EGFP (Fig. 5d)): binds
- binding (Myc-SALM2 (Fig. 5c)): binds
- binding (SALM5-EGFP (Fig. 5e)): binds

The remaining lines, values ahead:

- binding [1]: binds
- binding [2]: no binding
- binding [3]: binds
B2: HA/Myc-SALM4 ectodomain (SALM4 in the pDisplay vector tagged by both HA and Myc) (domain or fragment, UniProt Q8BLY3 17-539)
chain: SSPPQPAISSPCPRRCRCQTQSMPLSVLCPGAGLLFVPPSLDRRAAELRLADNFIAAVRRRDLANMTGLLHLSLSRNTIRHVAAGAFADLRALRALHLDGNRLTSLGEGQLRGLVNLRHLILSNNQLAALAAGALDDCAETLEDLDLSYNNLEQLPWEALGRLGNVNTLGLDHNLLASVPAGAFSRLHKLARLDMTSNRLTTIPPDPLFSRLPLLARPRGSPASALVLAFGGNPLHCNCELVWLRRLAREDDLEACASPPALGGRYFWAVGEEEFVCEPPVVTHRSPPLAVPAGRPAALRCRAVGDPEPRVRWVSPQGRLLGNSSRARAFPNGTLELLVTEPEDGGTFTCIAANAAGEATAAVELTVGPPPPPQLANSTSCDPPRDGEPDALTPPSAASASAKVADTVAPTDRGVQVTEHGATAALVQWPDQRPVPGIRMYQIQYNSSADDILVYRMIPADSRSFLLTDLASGRTYDLCVLAVYEDSATGLTATRPVGCARFSTEPALRPCAAPHAPFLGGTM

- binding (SALM3-EGFP (Fig. 5d)): binds
- binding (Myc-SALM2 (Fig. 5c)): no binding
- binding (SALM5-EGFP (Fig. 5e)): no binding
B3: HA-SALM4-ΔLRR (aa 287–627) (domain or fragment, UniProt Q8BLY3 287-626)
chain: GEEEFVCEPPVVTHRSPPLAVPAGRPAALRCRAVGDPEPRVRWVSPQGRLLGNSSRARAFPNGTLELLVTEPEDGGTFTCIAANAAGEATAAVELTVGPPPPPQLANSTSCDPPRDGEPDALTPPSAASASAKVADTVAPTDRGVQVTEHGATAALVQWPDQRPVPGIRMYQIQYNSSADDILVYRMIPADSRSFLLTDLASGRTYDLCVLAVYEDSATGLTATRPVGCARFSTEPALRPCAAPHAPFLGGTMIIALGGVIVASVLVFIFVLLLRYKVHGGQPPGKAKATAPVSSVCSQTNGALGPVPSAPAPEPAAPRAHTVVQLDCEPWGPSHEPAGP

- binding [1]: binds
- binding [2]: binds
- binding [3]: binds
B4: SALM4, Myc-tagged full-length (protein, UniProt Q8BLY3 17-626)
chain: SSPPQPAISSPCPRRCRCQTQSMPLSVLCPGAGLLFVPPSLDRRAAELRLADNFIAAVRRRDLANMTGLLHLSLSRNTIRHVAAGAFADLRALRALHLDGNRLTSLGEGQLRGLVNLRHLILSNNQLAALAAGALDDCAETLEDLDLSYNNLEQLPWEALGRLGNVNTLGLDHNLLASVPAGAFSRLHKLARLDMTSNRLTTIPPDPLFSRLPLLARPRGSPASALVLAFGGNPLHCNCELVWLRRLAREDDLEACASPPALGGRYFWAVGEEEFVCEPPVVTHRSPPLAVPAGRPAALRCRAVGDPEPRVRWVSPQGRLLGNSSRARAFPNGTLELLVTEPEDGGTFTCIAANAAGEATAAVELTVGPPPPPQLANSTSCDPPRDGEPDALTPPSAASASAKVADTVAPTDRGVQVTEHGATAALVQWPDQRPVPGIRMYQIQYNSSADDILVYRMIPADSRSFLLTDLASGRTYDLCVLAVYEDSATGLTATRPVGCARFSTEPALRPCAAPHAPFLGGTMIIALGGVIVASVLVFIFVLLLRYKVHGGQPPGKAKATAPVSSVCSQTNGALGPVPSAPAPEPAAPRAHTVVQLDCEPWGPSHEPAGP
